From PMC4336329 (PLoS ONE, 2015) come the findings set out here.

Molecules are shown by their SMILES. Hit rate of the full screen: of about 310,000 compounds, about 2,200 (0.71%) showed an effect of 50% or more. Effects have a minus sign here. The list shows a part of the results.

This assay deals with human ether-à-go-go-related gene (hERG) potassium channel (human, UniProt Q12809). Put plainly: primary screen, population patch clamp on CHO cells stably expressing hERG.
human ether-à-go-go-related gene (hERG) potassium channel, sequence (Q12809 whole entry, looked up): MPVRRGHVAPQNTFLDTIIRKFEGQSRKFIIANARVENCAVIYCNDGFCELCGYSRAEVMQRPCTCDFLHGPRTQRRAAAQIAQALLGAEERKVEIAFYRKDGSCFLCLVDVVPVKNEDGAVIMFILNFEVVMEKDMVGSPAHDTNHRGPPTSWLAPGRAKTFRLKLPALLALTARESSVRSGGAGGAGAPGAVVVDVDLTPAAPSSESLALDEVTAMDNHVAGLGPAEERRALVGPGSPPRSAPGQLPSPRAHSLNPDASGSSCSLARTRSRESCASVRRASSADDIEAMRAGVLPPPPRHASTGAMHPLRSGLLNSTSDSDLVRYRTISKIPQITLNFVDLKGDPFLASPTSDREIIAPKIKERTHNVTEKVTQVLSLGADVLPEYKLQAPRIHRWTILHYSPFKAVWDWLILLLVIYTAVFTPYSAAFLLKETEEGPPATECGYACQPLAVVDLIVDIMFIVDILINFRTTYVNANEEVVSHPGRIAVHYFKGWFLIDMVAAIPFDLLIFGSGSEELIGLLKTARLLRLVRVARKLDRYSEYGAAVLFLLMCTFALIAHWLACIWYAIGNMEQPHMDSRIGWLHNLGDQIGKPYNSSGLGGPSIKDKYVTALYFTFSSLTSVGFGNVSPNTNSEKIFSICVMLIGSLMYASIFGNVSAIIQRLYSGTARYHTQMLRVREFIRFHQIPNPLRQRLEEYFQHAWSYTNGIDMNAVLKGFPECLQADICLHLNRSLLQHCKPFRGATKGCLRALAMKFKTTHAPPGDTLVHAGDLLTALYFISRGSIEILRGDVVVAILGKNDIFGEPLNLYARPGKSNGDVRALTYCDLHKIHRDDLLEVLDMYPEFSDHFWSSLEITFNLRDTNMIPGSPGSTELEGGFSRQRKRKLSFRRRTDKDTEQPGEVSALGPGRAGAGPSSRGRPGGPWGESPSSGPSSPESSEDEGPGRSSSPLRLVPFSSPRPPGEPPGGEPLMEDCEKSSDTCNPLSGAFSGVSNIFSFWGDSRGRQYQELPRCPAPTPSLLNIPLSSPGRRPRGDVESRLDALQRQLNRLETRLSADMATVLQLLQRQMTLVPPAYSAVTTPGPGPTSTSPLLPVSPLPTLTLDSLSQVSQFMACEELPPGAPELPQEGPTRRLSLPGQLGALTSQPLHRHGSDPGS
With `COc1ccc(NC(=S)NCCc2ccccc2)c(OC)c1`, the “hERG current change (%, negative = inhibition) at 1uM” value was -5.28%. Turning to `CCN(CC)C(=O)c1ccc(NC(=O)CSc2nnnn2-c2cc(OC)ccc2OC)cc1`, the “hERG current change (%, negative = inhibition) at 1uM” value is 5.88%. `Cc1nnc2sc(SCC(=O)Nc3ccc(Cl)cc3)nn2c1=O`: the “hERG current change (%, negative = inhibition) at 1uM” value came to 0.312%.

`COc1cccc(C2CC(c3ccccc3Cl)n3ncnc3N2)c1` (stereo not drawn): the “hERG current change (%, negative = inhibition) at 1uM” value stood at 11%. `Cc1sccc1C1C(C#N)=C(N)SC(N)=C1C#N`: the “hERG current change (%, negative = inhibition) at 1uM” value came out at 15.4%.

As for `CCC(C)NC(=S)N(CCc1ccccc1)Cc1cc2cc(OC)c(OC)cc2[nH]c1=O` (stereo not drawn), the “hERG current change (%, negative = inhibition) at 1uM” value came to 6.75%.

In the case of `O=C(Nc1cccc(S(=O)(=O)Nc2ccc(Cl)cc2)c1)c1ccc(Cl)nc1`, the “hERG current change (%, negative = inhibition) at 1uM” value was 11.4%.

As for `O=C1NC(=Nc2ccc(F)cc2)CS1`, the “hERG current change (%, negative = inhibition) at 1uM” value is reported as 15.8%. On to `Cc1cc(/C=N/NC(N)=O)c(C)n1-c1ccc(F)cc1`, for which the “hERG current change (%, negative = inhibition) at 1uM” value worked out at 3.43%. Take `Cc1sc2nc(CC(=O)N3CCCC3)[nH]c(=O)c2c1C`: the “hERG current change (%, negative = inhibition) at 1uM” value came out at 2.77%. As for `O=C(N/C=N/O)C(c1ccccc1)c1ncc(C(F)(F)F)cc1Cl` (stereo not drawn), the “hERG current change (%, negative = inhibition) at 1uM” value worked out at 7.83%. Regarding `O=C(NCCC1CCCCN1S(=O)(=O)c1ccc(F)cc1)C(=O)NC1CC1` (stereo not drawn), the “hERG current change (%, negative = inhibition) at 1uM” value is reported as 11%. In the case of `COc1ccc(N2CC(C(=O)N/N=C/c3cc([N+](=O)[O-])ccc3O)CC2=O)cc1` (stereo not drawn) it was 5.91%; in that of `CCCn1c(N)c(N(CCOC)C(=O)/C=C/c2cccc(Cl)c2)c(=O)[nH]c1=O`, 24.8%. As for `CCCSc1nc2c(cnn2-c2ccc(Cl)cc2)c(=O)[nH]1`, the “hERG current change (%, negative = inhibition) at 1uM” value amounted to 8.11%. With `CCN1C(=O)c2ccccc2S(=O)c2ccc(C(=O)N3CCCC3)cc21` (stereo not drawn), the “hERG current change (%, negative = inhibition) at 1uM” value turned out to be 6.27%. Under `O=C(CN(c1ccccc1)S(=O)(=O)c1ccc(F)cc1)NCc1cccs1` stands 10.3%; under `O=C1/C(=C/c2cccnc2)N2CCC1CC2`, 20.1%; under `O=C(COC(=O)C1CCC1)c1c[nH]c2ccccc12`, 12.8%. Under `COc1cc(O)c(C(CCN2CCCC2)c2ccc3c(c2)OCO3)c(OC)c1` (stereo not drawn) stands -41.5%; under `Cc1cccc(/C=N/NC(=O)NC2CCCCC2)c1`, 11.8%; under `CC1=NN(C(C#N)c2ccccc2)C(c2ccccc2)C1` (stereo not drawn), 8.25%. On to `COc1ccc(CN2CCNC(=O)C2CC(=O)NC2CCCCCC2)cc1C` (stereo not drawn), for which the “hERG current change (%, negative = inhibition) at 1uM” value is 2.65%. As to `CN(C(=O)CSc1nnc(-c2n[nH]c3ccccc23)o1)c1ccccc1`, the “hERG current change (%, negative = inhibition) at 1uM” value is 11.7%. As to `CCCCCCc1nc2ccccc2c(=O)n1N`, the “hERG current change (%, negative = inhibition) at 1uM” value is reported as 7.3%. For the compound `Cc1ccc(CC(=O)Nc2ccc(C(=O)N3CCOCC3)cc2)cc1`, the “hERG current change (%, negative = inhibition) at 1uM” value is on record as -10.2%. Turning to `O=C(NC(=S)Nc1ccccc1O)c1ccc(Cl)cc1Cl`, the “hERG current change (%, negative = inhibition) at 1uM” value is on record as 16.5%. Under `CCN(CC)S(=O)(=O)c1ccc2c(c1)N(CC(=O)Nc1ccc(NC(C)=O)cc1)C(=O)CO2` stands 10.6%. Under `O=c1c2ccccc2ncn1CCCCOc1ccc(Br)cc1` stands 5.19%.

As for `COCCNC(=S)N(Cc1cc2cc(C)ccc2n2nnnc12)C1CCCC1`, the “hERG current change (%, negative = inhibition) at 1uM” value is 13.4%.

In the case of `Cc1ccc(NC(=O)CNS(=O)(=O)c2cccs2)cc1F`, the “hERG current change (%, negative = inhibition) at 1uM” value was -7.86%. For `CN1CCN(S(=O)(=O)c2ccc(N3CCN(c4ccccc4Cl)CC3)nc2)CC1`, the “hERG current change (%, negative = inhibition) at 1uM” value is 12.5%.

In the case of `O=C1NC(=Nc2ccccc2Cl)S/C1=C\c1ccc(C(=O)O)cc1`, the “hERG current change (%, negative = inhibition) at 1uM” value came out at 3.44%. As to `CC(Oc1ccc(Cl)cc1)/C(N)=N/O.Cl` (stereo not drawn), the “hERG current change (%, negative = inhibition) at 1uM” value is reported as 9.07%. For the compound `Cn1c(CCN2CCN(c3ccc(F)cc3)CC2)nc2cc(NC(=O)c3ccco3)ccc21`, the “hERG current change (%, negative = inhibition) at 1uM” value was -27.9%. In the case of `O=C1CC(N(CCc2ccccc2)C(=S)Nc2cc(Cl)ccc2Cl)C(=O)N1c1c(Cl)cccc1Cl` (stereo not drawn) it was 6.08%; in that of `O=C(NCCCN1CCCC1=O)c1cccc(S(=O)(=O)NCc2ccccc2)c1`, 4.73%; in that of `CCOC(=O)N1CCN(C(=O)CSCc2ccc(C)cc2)CC1`, 0.197%. Turning to `O=C(NCCc1nnc2ccc(NCCCN3CCOCC3)nn12)c1ccccc1`, the “hERG current change (%, negative = inhibition) at 1uM” value is reported as 12%. In the case of `OC(c1cccs1)(c1cccs1)C1C[N+]2(CF)CCC1CC2.[Cl-]` (stereo not drawn) it was 6.78%. Regarding `Nc1nonc1-c1nc2ccccc2n1Cc1ccccc1`, the “hERG current change (%, negative = inhibition) at 1uM” value came to 0.474%. Regarding `COc1ccc(C(=O)NCCN=C2NS(=O)(=O)c3ccccc32)cc1`, the “hERG current change (%, negative = inhibition) at 1uM” value is on record as 12.8%. Under `Cn1cc(C(=O)N2CCN(c3ccccc3)CC2)c(=O)c2cc(S(=O)(=O)N3CCCC3)ccc21` stands 20.3%. In the case of `COC(=O)CNC(=O)CSc1ccccn1` it was 5.64%; in that of `O=C(c1ccc(Cl)cc1)N1CCN(c2ccc([N+](=O)[O-])c(NCc3cccnc3)c2)CC1`, 5.11%. In the case of `O=C(O)CCS(=O)(=O)Cc1cccc(Cl)c1` it was 0.844%; in that of `O=C(NCCO)C(=O)c1c(-c2ccc(Cl)cc2)cc2ccccn12`, 5.27%. Take `COc1cc(COCC(O)CN2CCN(Cc3ccccc3)CC2)cc(OC)c1OC.Cl` (stereo not drawn): the “hERG current change (%, negative = inhibition) at 1uM” value is reported as -8.78%. On to `C=CCn1c(CNC(=O)c2ccco2)nnc1SCC(=O)c1ccc(F)cc1`, for which the “hERG current change (%, negative = inhibition) at 1uM” value is reported as 8.56%.

Turning to `O=S(=O)(Cc1cc(Cl)nc(-c2ccncc2)n1)c1ccccc1`, the “hERG current change (%, negative = inhibition) at 1uM” value is reported as 3.95%.

In the case of `Fc1ccccc1NC(=S)NCc1ccccc1`, the “hERG current change (%, negative = inhibition) at 1uM” value stood at 3.72%.

Take `CS(=O)(=O)N(Cc1ccc(C(=O)NN=C2CCCC2)cc1)c1ccccc1`: the “hERG current change (%, negative = inhibition) at 1uM” value is reported as 8.63%. Turning to `O=C(CN1C(=O)c2ccccc2C1=O)Nc1sc2c(c1C(=O)NCc1ccco1)CCCC2`, the “hERG current change (%, negative = inhibition) at 1uM” value turned out to be 19.2%.

In the case of `CC1(Cc2ccc3c(c2)OCO3)NC(=O)NC1=O` (stereo not drawn), the “hERG current change (%, negative = inhibition) at 1uM” value turned out to be 12.8%. As to `COc1cccc2c(Nc3ccccc3C)cc(C)nc12.Cl`, the “hERG current change (%, negative = inhibition) at 1uM” value was -2.86%.

As to `Cc1cc(NS(=O)(=O)c2ccc(NC(=O)/C=C/c3ccccc3)cc2)no1`, the “hERG current change (%, negative = inhibition) at 1uM” value was found to be 11.7%.

With `C/C(=N\NC(=O)CC1(C)OCCO1)c1cccs1`, the “hERG current change (%, negative = inhibition) at 1uM” value is reported as 11.1%.

In the case of `CC(=O)N1CN(Cc2ccccn2)Cc2c1sc1c2CCCC1`, the “hERG current change (%, negative = inhibition) at 1uM” value came out at 1.45%.

Take `Cc1cccc(C(=O)Nc2nnc(-c3ccncc3)o2)c1`: the “hERG current change (%, negative = inhibition) at 1uM” value was 3.55%. In the case of `O=C(NCc1nnnn1-c1ccc(Cl)cc1)c1ccc(Br)o1` it was 2.45%; in that of `CCOC(=O)c1cnc(SCC(=O)Nc2cccc(OC)c2)nc1N`, 2.27%; in that of `CCOc1ccc(NC(=S)N2CCCN(Cc3cccc(Cl)c3)C2)cc1`, 6.77%. Turning to `Cn1cnnc1SCC(=O)c1cc2ccccc2o1`, the “hERG current change (%, negative = inhibition) at 1uM” value was determined as 5.73%. Under `COc1ccc(Nc2nnc(SCc3cc([N+](=O)[O-])cc4c3OCOC4)s2)cc1` stands 29.5%; under `Br.N=c1n(CC(=O)c2ccc([N+](=O)[O-])cc2)c2ccccc2n1Cc1ccc(Cl)cc1`, 3.8%; under `CN(C)C(=O)c1nc2ccccc2s1`, 12.6%. On to `CN1C(=O)/C(=C/c2cn(CC(=O)NCc3ccco3)c3ccccc23)NC1=S`, for which the “hERG current change (%, negative = inhibition) at 1uM” value is given as 7.56%. In the case of `CO/N=C/NC(=O)c1ccc([N+](=O)[O-])c(CS(=O)(=O)c2ccc(Cl)cc2)c1` it was 6.28%; in that of `COCCNC(=O)c1cc2c(=O)[nH]c3ccccc3c2s1`, 13.5%; in that of `COC(=O)CCc1c(C)c(C(=O)c2cccc(OC)c2OC)c2ccccn12`, -1.5%. As to `Cn1ncc(Cl)c1C(=O)NCc1ccc(Cl)cc1`, the “hERG current change (%, negative = inhibition) at 1uM” value came out at 2.58%.

For `Cc1cc(SCC(=O)N(C)CC(=O)Nc2ccc(F)cc2)nc2ccccc12`, the “hERG current change (%, negative = inhibition) at 1uM” value is on record as -6.3%. Turning to `Cc1noc(C)c1COC(=O)c1ccc2ccccc2n1`, the “hERG current change (%, negative = inhibition) at 1uM” value is listed as -7.95%. Take `CN1CCC(N(C)C(=O)CNC(=O)c2ccc(C(C)(C)C)cc2)CC1`: the “hERG current change (%, negative = inhibition) at 1uM” value is 8.48%. Consider `O=C(c1ccc(=O)oc1)N1CCC(C(O)(c2ccccc2)c2ccccc2)CC1`, for which the “hERG current change (%, negative = inhibition) at 1uM” value is reported as 10.9%. In the case of `O=C(O)C1=C[C@@H](c2ccccc2)C[C@@H](OCc2ccc(CO)cc2)O1` it was 18.4%; in that of `C#CCn1c(=NC(=O)c2ccco2)sc2cccc(Cl)c21`, 6.96%; in that of `CC(=O)c1ccc(N2CCN(C(=O)c3cc(C)on3)CC2)cc1`, -5.03%. For `CCOc1ccc(N2CC(NS(=O)(=O)c3cccnc3)CC2=O)cc1` (stereo not drawn), the “hERG current change (%, negative = inhibition) at 1uM” value is on record as 0.221%.

`COCCNC(=O)c1c[nH]c2ccc(S(=O)(=O)N(C)c3ccc(C)c(C)c3)cc2c1=O`: the “hERG current change (%, negative = inhibition) at 1uM” value is -6.83%. Under `COc1ccc(NC2CCCN(C(=O)CCc3scnc3C)C2)cc1` (stereo not drawn) stands 15.5%. `COC(=O)C1=NNC2(C)C(=O)N(c3ccc(C)cc3)C(=O)C12` (stereo not drawn): the “hERG current change (%, negative = inhibition) at 1uM” value came to 13.6%. On to `COc1ccc(OC)c(CCNC(=O)C2CCN(c3ncnc4c3nc3n4CCCCC3)CC2)c1`, for which the “hERG current change (%, negative = inhibition) at 1uM” value came out at 1.42%. In the case of `O=C(COc1nsnc1N1CCOCC1)Nc1cccc(Cl)c1` it was 1.5%. In the case of `NS(=O)(=O)c1ccc(NC(=O)CCC(=O)N2CCOCC2)cc1` it was 14%.

Take `COc1ccc(OC)c(-n2c(-c3cc(-c4ccco4)[nH]n3)n[nH]c2=S)c1`: the “hERG current change (%, negative = inhibition) at 1uM” value is 9.23%. `CCCCCCCCCOC1OC(CO)C(O)C(O)C1NC(C)=O` (stereo not drawn): the “hERG current change (%, negative = inhibition) at 1uM” value worked out at 7.17%. In the case of `COCc1nnc(NC(=O)C2CCN(C(=O)c3ccco3)CC2)s1` it was 18.7%. For the compound `COC(=O)c1[nH]c2cc(OC)ccc2c1NC(=O)CN1CCN(c2cccc(C)c2)C(C)C1` (stereo not drawn), the “hERG current change (%, negative = inhibition) at 1uM” value came out at 10.3%. Under `COc1ccc(OC)c(-c2cc(C3CCN(c4ncccc4[N+](=O)[O-])CC3)[nH]n2)c1` stands 6.64%.
